The values below come from PMC4336329 (PLoS ONE, 2015).

About 14,000 (4.5%) of roughly 310,000 compounds showed an effect of 50% or more. Effects have a minus sign here. Some of the results follow.
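Note: peak tail current of the secondary pulse compared with the same well before compound.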

The target of the assay is human ether-à-go-go-related gene (hERG) potassium channel (human, UniProt Q12809). The experiment in a line: primary screen, population patch clamp on CHO cells stably expressing hERG.
human ether-à-go-go-related gene (hERG) potassium channel, sequence (Q12809 whole entry, looked up): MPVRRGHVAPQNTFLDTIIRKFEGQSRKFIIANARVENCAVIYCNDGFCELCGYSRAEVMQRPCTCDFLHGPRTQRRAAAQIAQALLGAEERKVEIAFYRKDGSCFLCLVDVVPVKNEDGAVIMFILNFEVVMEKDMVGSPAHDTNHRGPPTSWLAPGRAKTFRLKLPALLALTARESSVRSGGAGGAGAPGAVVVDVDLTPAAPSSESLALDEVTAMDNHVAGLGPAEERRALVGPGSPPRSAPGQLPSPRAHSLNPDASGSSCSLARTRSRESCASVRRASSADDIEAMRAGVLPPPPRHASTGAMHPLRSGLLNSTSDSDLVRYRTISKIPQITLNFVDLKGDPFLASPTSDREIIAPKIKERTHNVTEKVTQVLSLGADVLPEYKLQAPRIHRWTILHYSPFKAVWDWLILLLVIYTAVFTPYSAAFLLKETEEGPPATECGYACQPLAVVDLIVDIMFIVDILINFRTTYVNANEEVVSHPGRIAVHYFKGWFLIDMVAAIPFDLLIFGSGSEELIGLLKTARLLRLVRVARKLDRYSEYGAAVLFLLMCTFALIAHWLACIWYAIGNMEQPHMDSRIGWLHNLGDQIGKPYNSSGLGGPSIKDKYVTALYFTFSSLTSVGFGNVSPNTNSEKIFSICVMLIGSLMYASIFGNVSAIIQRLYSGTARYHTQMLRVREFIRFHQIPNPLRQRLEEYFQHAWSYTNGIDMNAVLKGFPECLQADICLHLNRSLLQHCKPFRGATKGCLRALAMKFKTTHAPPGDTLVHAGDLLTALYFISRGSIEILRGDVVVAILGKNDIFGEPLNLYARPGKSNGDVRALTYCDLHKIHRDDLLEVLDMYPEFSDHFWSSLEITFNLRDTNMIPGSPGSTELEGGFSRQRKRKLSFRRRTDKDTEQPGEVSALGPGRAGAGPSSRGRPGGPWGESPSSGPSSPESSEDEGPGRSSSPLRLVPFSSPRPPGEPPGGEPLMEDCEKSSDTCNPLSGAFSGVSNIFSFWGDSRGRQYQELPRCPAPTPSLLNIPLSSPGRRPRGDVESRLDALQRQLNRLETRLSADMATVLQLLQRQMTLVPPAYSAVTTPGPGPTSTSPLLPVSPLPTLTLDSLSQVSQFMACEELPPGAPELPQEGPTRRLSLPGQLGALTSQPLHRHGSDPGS
On to `Cc1oc(-c2cc(F)cc(F)c2)nc1CN1CCN(C(=O)c2ccco2)CC1`, for which the “hERG current change (%, negative = inhibition) at 10uM” value is on record as -40.5%.
For the compound `C/C(CC(=O)NC1CCCCC1)=N\NC(=O)COc1ccc(C)cc1Br`, the “hERG current change (%, negative = inhibition) at 10uM” value was -22.8%.
In the case of `COc1ccc(CNC(=O)c2cccnc2Sc2ccc(C)c(C)c2)cc1`, the “hERG current change (%, negative = inhibition) at 10uM” value amounted to 3.63%.
For `Cc1cc(C(=O)CS(=O)(=O)c2ccc(F)cc2)cc(C)c1O`, the “hERG current change (%, negative = inhibition) at 10uM” value was 4.3%.
Regarding `CC(C)OCC(O)Cn1c(N2CCCC2)nc2c1c(=O)n(C)c(=O)n2C` (stereo not shown), the “hERG current change (%, negative = inhibition) at 10uM” value turned out to be 13.6%.
For `COc1ccc(CC(=O)N(Cc2cc3cc(OC)ccc3[nH]c2=O)C(C)C)cc1` the value was -39%; for `COC(=O)CC(N)c1ccc(OC)c2ccccc12.Cl` (stereo not shown), -18.8%; for `NC(=S)N/N=C/c1ccc(-c2cc(Cl)c(Cl)cc2Cl)o1`, 15.5%.
For the compound `O=C(NCCCN1CCOCC1)c1onc(CSc2ccccn2)c1C(=O)NCCCN1CCOCC1`, the “hERG current change (%, negative = inhibition) at 10uM” value was determined as 8.13%.
The figure for `COC(=O)C1=NN(c2cccc3ccccc23)C2C(=O)N(c3ccccc3OC)C(=O)C12` (stereo not shown) is 4.78%.
Regarding `N#Cc1ccc(NC(=O)CSc2cn[nH]n2)cc1`, the “hERG current change (%, negative = inhibition) at 10uM” value is listed as 24.4%.
On to `CC(CC(=O)NCc1cccnc1)c1ccccc1` (stereo not shown), for which the “hERG current change (%, negative = inhibition) at 10uM” value amounted to 10.6%.
`O=C(CCSc1nc(-c2ccco2)cc(C(F)(F)F)n1)NCc1cccs1`: the “hERG current change (%, negative = inhibition) at 10uM” value was -12.2%.
As to `Oc1c(Cl)cc(Cl)cc1/C=N/Nc1ncc(Br)cn1`, the “hERG current change (%, negative = inhibition) at 10uM” value is -0.796%.
For `CC(OC(=O)c1cccs1)C(=O)NC1CC1` (stereo not shown) the value was -5.98%; for `Cn1c(=O)oc2cc(S(=O)(=O)Nc3ccc(Cl)cc3)ccc21`, 14.7%; for `CCOc1cccc(C(=O)NC(=S)Nc2cccc(NC(=O)c3ccccc3Cl)c2)c1`, 16.5%.
Turning to `Cc1nc2ccccc2c(=O)n1-c1ccc(F)c(NC(=O)c2cccs2)c1`, the “hERG current change (%, negative = inhibition) at 10uM” value is recorded as -22.6%.
On to `COC(=O)c1cc(OC)c(OC)cc1NC(=O)CC1CCCCC1`, for which the “hERG current change (%, negative = inhibition) at 10uM” value is listed as -0.091%.
For `CCCC(NC(=O)CCl)c1ccccc1` (stereo not shown) the value was 4.67%; for `CS(=O)(=O)N1CCN(C(=O)c2cc3ccccc3oc2=O)CC1`, -0.0734%.
On to `COc1ccc(S(=O)(=O)N2CCC(C(=O)N3CCCCC3)CC2)cc1`, for which the “hERG current change (%, negative = inhibition) at 10uM” value stood at 2.83%.
With `CN(CC(=O)Nc1ccc(F)cc1)C(=O)COC(=O)/C=C/c1cccs1`, the “hERG current change (%, negative = inhibition) at 10uM” value is given as 11.3%.
The figure for `CC(C)(CC(=O)OCC(=O)Nc1ccccc1F)CC1=NS(=O)(=O)c2ccccc2N1` is 0.85%.
For `CC(C)N1C(=O)c2ccccc2N(Cc2ccccc2)S1(=O)=O`, the “hERG current change (%, negative = inhibition) at 10uM” value is listed as -0.116%.
For the compound `COc1cc(OC)cc(C(=O)N[C@H](C(=O)OCC(=O)Nc2ccc(C(N)=O)cc2)C(C)C)c1`, the “hERG current change (%, negative = inhibition) at 10uM” value is listed as -40.5%.
For `CCc1ccc(OCC(=O)NC(NC(=S)Nc2ccc(Cl)cc2)C(Cl)(Cl)Cl)cc1` (stereo not shown) the value was 6.97%; for `Nc1nc(NCC2CCCO2)nc(Nc2cccc(Cl)c2)c1[N+](=O)[O-]` (stereo not shown), -1.02%.
For `COc1ccc(CNC(=O)C(C)Sc2nc3ccccc3c(=O)n2CCCN2CCOCC2)cc1` (stereo not shown), the “hERG current change (%, negative = inhibition) at 10uM” value is -84.9%.
The figure for `COCCOc1cc(NC(=O)CS(=O)CC(=O)N(C)C)c(Cl)cc1Cl` (stereo not shown) is 13.2%; for `COc1ccc2[nH]c(C(=O)NCCCN3CCCC3=O)c(C)c2c1` it is 0.0274%.
For `Cc1ccc(-n2nnnc2SCC(=O)c2c(N)n(C3CC3)c(=O)[nH]c2=O)c(C)c1`, the “hERG current change (%, negative = inhibition) at 10uM” value is -4.23%.
For `Cc1nnc2n(-c3ccccc3)c(=O)c3c4c(sc3n12)CCCC4` the value was -13.7%; for `CC(NC(=O)Cn1cc([N+](=O)[O-])cn1)c1ccc(C(C)(C)C)cc1` (stereo not shown), 1.71%.
`COCCn1c(SCC(=O)NC2CC2)nc2ccccc21`: the “hERG current change (%, negative = inhibition) at 10uM” value is 8.72%.
As for `COc1ccc(N2CCN(C(=O)COc3ccc4c(C)cc(=O)oc4c3C)CC2)cc1`, the “hERG current change (%, negative = inhibition) at 10uM” value came to 20.6%.
`COc1ccc(C(CNC(=O)c2oc3ccccc3c2C)N2CCCC2)cc1` (stereo not shown): the “hERG current change (%, negative = inhibition) at 10uM” value was -43.8%.
Turning to `COc1cccc(NCc2cc3c(C(C)(C)C)nn(-c4ccccc4)c3[nH]c2=O)c1`, the “hERG current change (%, negative = inhibition) at 10uM” value amounted to 4.57%.
Regarding `Cc1ccc2c(c1)c1c(n2CC(O)Cn2nc(C)c(Br)c2C)C(=O)CCC1` (stereo not shown), the “hERG current change (%, negative = inhibition) at 10uM” value stood at 18.6%.
The figure for `COc1ccc(OC)c(S(=O)(=O)NCC(c2cccs2)N2CCc3ccccc3C2)c1` (stereo not shown) is -16.9%; for `COc1ccc(C(=O)O/N=C(\N)c2ccccc2Cl)cc1OC` it is -0.412%; for `COc1ccc(/C=C(\C#N)C(=O)OCC(=O)N(C)C2CCS(=O)(=O)C2)cc1` (stereo not shown) it is -17%.
As for `O=C(O)CCCN1C(=O)/C(=C\c2ccccc2OCc2ccccc2)SC1=S`, the “hERG current change (%, negative = inhibition) at 10uM” value stood at 9.19%.
Regarding `CCOc1ccc(NC(=O)Nc2ccc(Cc3ccncc3)cc2)cc1`, the “hERG current change (%, negative = inhibition) at 10uM” value is reported as 1.1%.
The figure for `COc1ccccc1N1CCN(C(=O)CN(C2CCCCC2)S(C)(=O)=O)CC1` is -1.8%; for `CCN(CC)CCCNc1ncnc2ccccc12.Cl` it is -13.1%; for `Cc1ccc(CC(=O)Nc2cc([N+](=O)[O-])ccc2F)cc1` it is 16.1%.
On to `O=C(NC(=S)NCCC1=CCCCC1)c1cccnc1`, for which the “hERG current change (%, negative = inhibition) at 10uM” value is reported as -2.49%.
For the compound `Cc1ccc[n+](C(C)C(=O)Nc2ccc([N+](=O)[O-])cc2C)c1.[Br-]` (stereo not shown), the “hERG current change (%, negative = inhibition) at 10uM” value is on record as 16.7%.
Take `CCOc1ccc(NC(=O)[C@@H](NC(=O)OCc2ccccc2)[C@@H](C)CC)cc1`: the “hERG current change (%, negative = inhibition) at 10uM” value is on record as 13.1%.
The figure for `COc1ccc(OC)c(C2=NS(=O)(=O)N(C)C(C(=O)Nc3ccc(F)cc3F)=C2)c1` is 13%; for `O=C(ON=C1CCSCC1)c1ccccc1` it is 2.28%.
On to `Cc1cccc(C(=O)N/N=C/c2ccoc2)c1`, for which the “hERG current change (%, negative = inhibition) at 10uM” value was determined as 13.3%.
For `COCc1cc(C)nc(OCC(=O)N/N=C/c2ccc(OC)c(O)c2)c1C#N` the value was -11.2%.
On to `O=C(NCCCn1ccnc1)c1ccc(COc2ccccc2)o1`, for which the “hERG current change (%, negative = inhibition) at 10uM” value is listed as -25.7%.
`O=C(CSc1nc(O)c(C2CCCCC2)c(=O)[nH]1)NCC1CCCO1` (stereo not shown): the “hERG current change (%, negative = inhibition) at 10uM” value was -7.2%.
For `O=C(/C=C/c1ccco1)c1cccnc1`, the “hERG current change (%, negative = inhibition) at 10uM” value is recorded as 6.42%.
Turning to `Cc1ccc(NC(=O)CCOc2ccccc2)cc1`, the “hERG current change (%, negative = inhibition) at 10uM” value is listed as 2.02%.
Take `COc1ccc(Cc2nc(-c3ccc(Cl)cc3)no2)cc1`: the “hERG current change (%, negative = inhibition) at 10uM” value was determined as 7.36%.
In the case of `Cc1nc(SCc2c(F)cccc2Cl)n[nH]1`, the “hERG current change (%, negative = inhibition) at 10uM” value was -8.42%.
On to `O=C(CCn1nnc2ccccc21)Nc1nnc(Cc2ccc(F)cc2)s1`, for which the “hERG current change (%, negative = inhibition) at 10uM” value is listed as -3.64%.
`CCCCCCCC(=O)N/N=C/c1ccc(Br)cc1`: the “hERG current change (%, negative = inhibition) at 10uM” value was 11.8%.
Consider `CNC(=O)CSc1nc2c([nH]c3ccccc32)c(=O)n1CCOC`, for which the “hERG current change (%, negative = inhibition) at 10uM” value is given as -9.32%.
As to `O=C(Cn1cnc2c(nnn2-c2ccc(F)cc2)c1=O)N1CCCC1`, the “hERG current change (%, negative = inhibition) at 10uM” value was -1.53%.
The figure for `CCC(c1nc2ccccc2c(=O)n1-c1nc2ccccc2s1)N1C(=O)c2ccccc2C1=O` (stereo not shown) is 11.8%; for `CCOC(=O)C(O)(c1ccc(NC(=O)NC2CCCCC2)cc1)C(F)(F)F` (stereo not shown) it is 1.15%; for `Cc1ccc(C(=O)N2CCN(S(=O)(=O)c3ccc(C(C)C)cc3)CC2)s1` it is -36.6%.
Take `Cc1nn(Cc2ccc(F)cc2)c2sc(C(=O)Nc3ccccc3N3CCOCC3)cc12`: the “hERG current change (%, negative = inhibition) at 10uM” value is recorded as 6.49%.
As for `CC(C)(C)c1n[nH]c(=S)n(N)c1=O`, the “hERG current change (%, negative = inhibition) at 10uM” value is recorded as 6.84%.
The figure for `Cc1ccsc1/C=N/NC(=S)NCc1ccccc1` is 11.8%; for `Cc1cc(S(=O)(=O)N2CCOCC2)ccc1OCC(=O)Nc1ccc(F)cc1` it is -18.9%.
As to `Cc1ccc(C(=O)NCCNC(=O)CN2CCOCC2)cc1`, the “hERG current change (%, negative = inhibition) at 10uM” value is reported as 13.3%.
Turning to `COc1cc(Nc2nnc(C)s2)c(Cl)cc1Cl`, the “hERG current change (%, negative = inhibition) at 10uM” value came out at 3.92%.
Regarding `CCn1c(CCn2ccnc2C)n[nH]c1=S`, the “hERG current change (%, negative = inhibition) at 10uM” value is listed as -1.48%.
For `CS(=O)(=O)c1ccc(NC(=O)c2ccccc2-n2cnnn2)cc1` the value was 4.9%.
In the case of `CCCOc1ccc(/C=N/Nc2cccc([N+](=O)[O-])c2)c(O)c1`, the “hERG current change (%, negative = inhibition) at 10uM” value came out at 7.96%.
For `CN(CC(=O)Nc1ccccc1C(F)(F)F)C(=O)c1ccccc1Sc1ccccc1C#N` the value was -9.93%; for `C[N+]1(C)C2CCC1CC(OC(=O)c1c[nH]c3ccccc13)C2.[I-]` (stereo not shown), 10.2%; for `COc1ccc(NC2CCCN(C(=O)CCc3cccc(Cl)c3)C2)cc1` (stereo not shown), -40.1%.
As to `O=C(O)c1cccc2c1/C(=N/O)c1ccccc1-2`, the “hERG current change (%, negative = inhibition) at 10uM” value is on record as 16.6%.
The figure for `CC1=CC2=C(OC1N(C)C)c1cccc3cccc(c13)C2=O` (stereo not shown) is -6.65%; for `CC(C)c1ccc(NC(=O)N2CCCC2C(=O)Nc2ccc(-n3cnnn3)cc2)cc1` (stereo not shown) it is -61.8%.
As for `CCc1ccc(/C=C2\SC(=S)N(CCCC(=O)Nc3ccccn3)C2=O)cc1`, the “hERG current change (%, negative = inhibition) at 10uM” value turned out to be 12.7%.
Take `COc1ccccc1NC=C1C(=O)OC2(CCCCC2)OC1=O`: the “hERG current change (%, negative = inhibition) at 10uM” value is given as -7.24%.
For `CC(C)c1nc(SCC(=O)NC2CCCC2)c2ccccc2n1` the value was -5.67%; for `O=C(CNC(=S)N(CCCN1CCOCC1)Cc1cccs1)N1CCCCCC1`, -41.4%.
On to `Cc1ccc2oc(C(=O)NCc3ncc(C)[nH]3)c(C)c2c1`, for which the “hERG current change (%, negative = inhibition) at 10uM” value is on record as -3.93%.
On to `O=C(c1ccc(-c2ccccc2)c(F)c1)C1CCCN(C(=O)c2cncs2)C1` (stereo not shown), for which the “hERG current change (%, negative = inhibition) at 10uM” value is on record as -18.4%.
Turning to `Cc1cc(NC(=O)Nc2cccc(Cl)c2)n(-c2ccccn2)n1`, the “hERG current change (%, negative = inhibition) at 10uM” value is given as 23.7%.
In the case of `c1ccc(SSc2ccccc2)cc1`, the “hERG current change (%, negative = inhibition) at 10uM” value is listed as 16.7%.
On to `Cc1cc(C(=O)NNc2ccccc2F)no1`, for which the “hERG current change (%, negative = inhibition) at 10uM” value is on record as 14.5%.
